Test results taken from publication PMC4336329 (PLoS ONE, 2015).
About 2,200 (0.71%) of roughly 310,000 compounds showed an effect of 50% or more. The effect is printed as a negative number. The list shows a part of the results.

molecular target: human ether-à-go-go-related gene (hERG) potassium channel (human, UniProt Q12809); assay: primary screen, population patch clamp on CHO cells stably expressing hERG
Sequence (Q12809 whole entry, looked up): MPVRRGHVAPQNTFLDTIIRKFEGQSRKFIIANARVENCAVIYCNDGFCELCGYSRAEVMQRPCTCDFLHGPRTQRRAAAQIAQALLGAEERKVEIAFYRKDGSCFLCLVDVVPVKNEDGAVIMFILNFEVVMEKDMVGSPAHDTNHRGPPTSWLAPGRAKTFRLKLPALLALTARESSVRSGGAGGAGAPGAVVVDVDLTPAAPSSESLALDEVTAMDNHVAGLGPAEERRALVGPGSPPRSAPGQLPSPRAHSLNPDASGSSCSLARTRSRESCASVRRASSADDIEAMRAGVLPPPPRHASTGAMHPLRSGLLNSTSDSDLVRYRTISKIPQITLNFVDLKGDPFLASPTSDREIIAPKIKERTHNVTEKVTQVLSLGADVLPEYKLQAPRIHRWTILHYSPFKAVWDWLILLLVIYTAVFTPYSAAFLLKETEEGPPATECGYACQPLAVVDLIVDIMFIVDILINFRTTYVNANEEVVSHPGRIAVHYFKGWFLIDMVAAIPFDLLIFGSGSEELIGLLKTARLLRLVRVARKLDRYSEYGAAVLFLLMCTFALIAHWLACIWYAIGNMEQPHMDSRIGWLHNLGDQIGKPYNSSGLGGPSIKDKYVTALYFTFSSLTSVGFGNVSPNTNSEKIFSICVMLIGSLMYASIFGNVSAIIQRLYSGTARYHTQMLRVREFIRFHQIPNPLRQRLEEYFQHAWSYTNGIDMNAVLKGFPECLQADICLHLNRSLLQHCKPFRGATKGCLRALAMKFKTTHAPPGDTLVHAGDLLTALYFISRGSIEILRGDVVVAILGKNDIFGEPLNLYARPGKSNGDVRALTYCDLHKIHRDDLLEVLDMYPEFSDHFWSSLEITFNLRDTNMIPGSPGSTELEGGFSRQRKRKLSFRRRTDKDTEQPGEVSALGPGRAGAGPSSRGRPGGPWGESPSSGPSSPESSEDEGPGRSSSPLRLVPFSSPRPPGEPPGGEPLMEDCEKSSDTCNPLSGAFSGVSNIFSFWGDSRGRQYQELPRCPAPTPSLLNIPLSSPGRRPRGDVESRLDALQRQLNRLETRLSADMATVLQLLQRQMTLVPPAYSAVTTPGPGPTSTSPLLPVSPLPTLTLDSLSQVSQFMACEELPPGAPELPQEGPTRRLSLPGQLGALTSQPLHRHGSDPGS

Row | Structure (SMILES) | hERG current change (%, negative = inhibition) at 1uM [%]
1 | Oc1ccccc1/C=N/[n+]1ccccc1.[I-] | 14.5
2 | CCOC(=O)c1ccc(NC(=S)N2CCN(C(=O)C3CCCO3)CC2)cc1 (stereo not drawn) | 13.8
3 | COCCNC(=O)C(OC(=O)c1nsc(Cl)c1Cl)C(C)C (stereo not drawn) | 13.1
4 | Cn1c(SCC(=O)NCC2CCCO2)nnc1-c1cccc(NC(=O)c2ccccc2F)c1 (stereo not drawn) | 14.4
5 | CCCc1ncc(C(O)c2cccc(OC)c2OC)n1C (stereo not drawn) | 0.936
6 | Cc1cc(NC(=O)CSc2c(C)[nH]c3ccccc23)no1 | 17.3
7 | CC1CN(Cc2ccccc2)C(C)CC1O (stereo not drawn) | -4.89
8 | COC(=O)CN1C(C)=Nc2ccc(C)cc2C1c1ccccc1 (stereo not drawn) | -8.92
9 | CC(C)(C)c1[nH]nc2c1C(c1cccnc1)C(C#N)=C(N)O2 (stereo not drawn) | 11.7
10 | Cc1ccc(C(=O)NNC(=O)c2ccc(NS(=O)(=O)c3cccs3)cc2)o1 | -11.2
11 | CCn1cc([N+](=O)[O-])c(C(=O)Nc2nc(-c3ccc(C)cc3)c(C)s2)n1 | 1.17
12 | CCNC(=S)N/N=C/c1c(Cl)cccc1Cl | 3.85
13 | CC(=O)N(Cc1ccccc1)c1ncc2c(n1)c(=O)c(C#N)c1ccccn12 | 4
14 | O=C(CCn1c(=S)oc2ccccc21)Nc1ccc2c(c1)OCCO2 | 8.3
15 | CC(=O)c1cccc(NC(=O)c2ccccc2N(C)S(=O)(=O)c2ccc(C)cc2)c1 | 4.31
16 | CCN(CC)S(=O)(=O)c1ccc(Cl)c(NC(=O)CSc2nnc(-c3cccs3)o2)c1 | 5.51
17 | CC(C)c1ccc2[nH]c(O)c(N=NC(=O)c3cccc(S(=O)(=O)Nc4ccccc4Cl)c3)c2c1 | 2.57
18 | O=C(c1nc2ccc(Cl)cn2c1CN1CCC[C@H]1CO)N1CCCCCCC1 | 10.9
19 | O=C1/C(=C/c2cccs2)SC(=S)N1c1ccccc1 | 16.9

Row | Structure (SMILES) | hERG current change (%, negative = inhibition) at 1uM [%]
20 | CN1CCN(c2ccc([N+](=O)[O-])c(SCCO)c2)CC1 | -14.6
21 | O=CN1CCC(=O)N(Cc2ccccc2)c2ccccc21 | -5.78
22 | CCN(CC(=O)Nc1ccc(NC(C)=O)cc1)C(=O)/C=C/c1cn(-c2ccccc2)nc1-c1ccc(C)cc1 | 16.1
23 | COc1ccc(C/C(C)=N/NC(=S)Nc2ccc(Cl)cc2)cc1 | 17.2
24 | N#CCCN1CCN(C2=NC(=O)/C(=C\c3cccs3)S2)CC1 | -12.5
25 | CN1CCN(C(=O)C23CCC(C)(c4nc5ccccc5nc42)C3(C)C)CC1 (stereo not drawn) | -12.1
26 | CCC1CCc2sc(C(=O)N(C)CC(=O)Nc3ccc(N4CCOCC4)cc3)cc2C1 (stereo not drawn) | 19.2
27 | c1ccc2[nH]c(Cn3nnc4ccccc43)nc2c1 | 6.49
28 | O=C(NCc1ccco1)C(=O)c1c[nH]c2ccccc12 | 12.7
29 | CC1CN(S(=O)(=O)c2ccc(C(=O)Nc3nnc(-c4ccco4)o3)cc2)CC(C)O1 (stereo not drawn) | 13.6
30 | Cc1cc(Cl)cc(Cl)c1CNc1c([N+](=O)[O-])c(=O)oc2ccccc12 | 7.59
31 | CCOC(=O)c1c(C)[nH]c(C)c1S(=O)(=O)N(C)CC(=O)Nc1cccc(C)n1 | 2.99
32 | Cc1ccc(NC(=O)c2ccc(S(=O)(=O)NCc3cccnc3)cc2)c(C)c1 | 13.6
33 | O=C1CCC(=O)N1c1ccccc1OS(=O)(=O)c1ccccc1 | 26.1
34 | CC(C)COc1ccc(C(=O)N/C(=C\c2cccc([N+](=O)[O-])c2)C(=O)O)cc1 | 11.4
35 | CN(C)c1ccc(C=C(C#N)C#N)cc1 | 7.56
36 | Nc1cc(OC(=O)c2c(F)cccc2Cl)nn1S(=O)(=O)c1ccccc1 | 7.34
37 | CC1CC(OC(=O)c2ccccc2)CC(C)N1C.Cl (stereo not drawn) | 2.43
38 | COc1ccccc1NC(=O)OCC#CCOC(=O)Nc1ccccc1OC | 6.61

Row | Structure (SMILES) | hERG current change (%, negative = inhibition) at 1uM [%]
39 | Oc1ccc(N=C/C=C/c2cccc(Br)c2)cc1-c1nc2ccccc2s1 | 13.4
40 | O=C(Nc1ccc(Cl)c(S(=O)(=O)N2CCOCC2)c1)c1ccc(OCC2CCCO2)cc1 (stereo not drawn) | 4.26
41 | O=C1CCC(C(=O)OCC(=O)C23CC4CC(CC(C4)C2)C3)N1 (stereo not drawn) | 6.35
42 | Cc1ccc(OCC(=O)OCc2nc3scc(-c4ccccc4)c3c(=O)[nH]2)cc1C | 9.79
43 | Cn1cc(C(=O)N/N=C/c2cccc(O)c2)ccc1=O | 14.4
44 | O=C(NNC(=O)c1cccc(-n2cnnn2)c1)c1ccccc1 | 18.7
45 | Cl.Nc1cccc(Nc2ncnc3ccccc23)c1 | 15.6
46 | CC(=O)NC1C(=O)Nc2c1cccc2C(F)(F)F (stereo not drawn) | 14.3
47 | CCOc1ccc(NC2CCCCC2NS(=O)(=O)c2ccccc2)cc1 (stereo not drawn) | 8.2
48 | COc1ccc(NC(=O)CCN2C(=O)c3ccccc3C2=O)c(OC)c1 | 11.1
49 | Clc1cnc(Nc2cccnc2)c(Cl)c1 | 12.9
50 | Cc1cc(C(=O)O)cc(Br)c1N | 5.4
51 | CCCn1c(NC(=O)c2ccc(Br)cc2)nc2ccccc21 | 4.48
52 | CN(C)CC1CSCCC1(O)c1ccccc1Cl.Cl (stereo not drawn) | 6.19
53 | CCN(CC)S(=O)(=O)c1ccc2c(c1)c(=O)c(C(=O)N1CCOCC1)cn2C | 1.12
54 | Cc1ccc(CN(C(=O)c2c(F)cccc2F)C2CC(C)(C)NC(C)(C)C2)o1.Cl | 7.33
55 | COc1cccc(/C=N/NC(=O)CSc2ccccc2C)c1O | -6.07
56 | Cc1ccc2c(C(=O)CN3CCN(C(=O)c4ccco4)CC3)c(C)[nH]c2c1 | 0.527
57 | CCN(CC)CCOC(=O)c1ccc(N=Cc2c(O)[nH]c(=O)[nH]c2=O)cc1 | 7.64
